# Source: the supplement of paper PMC3334620
# In all, about 33,000 sequences were measured (“E-score (-0.5 to 0.5)”: median about -0.011, highest 2% from about 0.28 on). The list shows a part of the results.
# Target: T1, Gcr1 (UniProt P07261)
# T1 sequence: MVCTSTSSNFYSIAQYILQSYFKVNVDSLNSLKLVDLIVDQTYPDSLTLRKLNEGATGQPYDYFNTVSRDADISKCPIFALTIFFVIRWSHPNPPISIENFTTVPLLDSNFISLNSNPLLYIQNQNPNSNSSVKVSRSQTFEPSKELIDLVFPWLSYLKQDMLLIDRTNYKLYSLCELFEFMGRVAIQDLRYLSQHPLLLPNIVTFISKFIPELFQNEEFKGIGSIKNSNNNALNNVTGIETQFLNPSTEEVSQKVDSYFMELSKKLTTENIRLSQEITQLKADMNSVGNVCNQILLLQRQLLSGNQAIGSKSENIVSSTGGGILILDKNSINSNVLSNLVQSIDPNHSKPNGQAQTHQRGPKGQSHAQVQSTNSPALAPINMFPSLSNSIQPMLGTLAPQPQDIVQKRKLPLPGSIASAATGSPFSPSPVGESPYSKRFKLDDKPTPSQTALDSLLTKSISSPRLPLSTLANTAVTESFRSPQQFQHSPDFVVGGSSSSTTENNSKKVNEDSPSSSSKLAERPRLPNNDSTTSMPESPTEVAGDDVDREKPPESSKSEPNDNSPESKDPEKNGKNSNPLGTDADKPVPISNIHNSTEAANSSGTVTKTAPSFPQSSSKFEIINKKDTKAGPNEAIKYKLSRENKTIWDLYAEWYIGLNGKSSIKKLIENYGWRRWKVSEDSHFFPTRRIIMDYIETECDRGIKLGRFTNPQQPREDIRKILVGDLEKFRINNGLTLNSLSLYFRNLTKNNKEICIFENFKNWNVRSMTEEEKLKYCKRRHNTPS
# Test: PBM E-score (8-mer binding enrichment) (E-score (-0.5 to 0.5)); higher = stronger / more preferred TF binding; most listed sequences are background and not binding sites
# Conditions: protein concentration: 100 nM; construct: GST-full length
# Description: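 Universal 'all 10-mer' protein binding microarrays (Agilent AMADID 015681) probed with GST-tagged S. cerevisiae TFs (full-length or DBD) made by in vitro transcription/translation (PURExpress), about 100-200 nM. Bound TF was detected with fluorescent anti-GST. Each ungapped 8-mer (which stands for itself and its reverse complement) is scored by the PBM enrichment score (E-score), a modified Wilcoxon-Mann-Whitney statistic from -0.5 to +0.5, computed with the Universal PBM Analysis Suite. Scale: above 0.35 generally sequence-specific binding.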
row,Sequence,PBM E-score
1,AAGGCAGC,0.189
2,TACGAAGA,-0.0501
3,AGCTTACT,-0.00812
4,CAAGAGTG,0.00507
5,CGTCAACA,-0.0251
6,AGGTGATA,-0.087
7,AGCTTAGA,-0.232
8,CGATGGTC,-0.0277
9,AGGCACCC,0.284
10,CCGGGCAC,0.264
11,ATCAATCG,0.0139
12,CAGCAACA,0.0034
13,AGCTCTTC,-0.00577
14,ATCGACTG,-0.124
15,CTCCCCCC,-0.25
16,TATTTACA,0.0799
17,ATTGTGCA,-0.122
18,CTCTCAAG,0.118
19,GAAGTCAC,0.00882
20,GGGCCCGA,0.121
21,CATAATGA,0.0644
22,ATTCGGAG,0.129
23,CCTTGTAG,-0.154
24,GACGACGC,0.00612
25,CGTGTCAC,-0.0918

row,Sequence,PBM E-score
1,CACGTACC,-0.0898
2,ACCAGCCA,-0.0593
3,ATCGGCCA,-0.109
4,ACCCACTC,0.0683
5,CCCCAGAG,-0.0817
6,AATTGACT,0.0553
7,CAGGACTC,0.0853
8,AAAGGTGT,-0.0119
9,CCTTATTA,0.0286
10,AAGGCATT,-0.231
11,ACCTCCCA,-0.236
12,ATGTTCTA,0.0526
13,AAACTTGC,0.0797
14,AGCGGTCG,-0.105
15,ATACGTCA,0.0524
16,CAACTCGG,0.14
17,TCCATTCA,0.131
18,AGAGCAGC,0.0483
19,GACTGACC,-0.258
20,ACCCACAA,0.117
21,CTAGCTGC,0.161
22,CAAGTTTC,-0.0521
23,ACCATGCT,-0.0851
24,CCGTCGGA,-0.156
25,GGCTGCTA,0.318

row,Sequence,PBM E-score
1,GACCAATA,-0.04
2,AGTGCCAT,-0.17
3,CCGCCCTC,0.034
4,GCACTAGC,-0.0591
5,AATAAGAG,0.0844
6,CCCAAGGG,-0.186
7,GTGACGAA,0.0386
8,ACCGGGAC,0.0546
9,ATAGTTGG,0.101
10,AGTCCGAA,0.0746
11,CACCATTC,-0.0376
12,ACCAATGA,-0.0158
13,AATTTTAT,0.131
14,AGGAGTAC,-0.194
15,AGTAGTCG,0.00584
16,ACAGGTTA,0.0706
17,CCCAACCA,0.0323
18,ACGGGAGA,-0.0683
19,ATTCAAAC,-0.0211
20,GCTGTGAA,-0.152
21,CCTTGCAA,-0.178
22,TGCGTAAA,0.0632
23,ATGTCCAA,0.0476
24,TATGCTCA,-0.00311
25,GAAAACCC,-0.205

row,Sequence,PBM E-score
1,CGTTCTTC,-0.115
2,GCGAAGAC,-0.133
3,AGCCCCAG,0.0473
4,AATGAGCA,0.0307
5,AATTCATC,-0.046
6,GTTCACCA,-0.0328
7,CAGTAAGC,0.0313
8,CGCTAAAC,-0.118
9,ATGCCCAG,0.0447
10,CCGTAGAG,-0.0373
11,GCCGAAGC,0.00576
12,AGGTGCCG,0.22
13,GATATTGC,0.00295
14,CCCCACCG,-0.083
15,GATAATAA,-0.0812
16,CGGAAGTA,-0.0129
17,CGGGCATC,0.282
18,AGCTATCG,0.00357
19,CTTAACGA,0.0653
20,CGTGTTGA,-0.125
21,CGTTGCTA,0.0895
22,AGTTCGTG,0.0517
23,CCAGCCAA,-0.11
24,AGCTCACT,-0.143
25,ATCTACGG,-0.00111

row,Sequence,PBM E-score
1,CGGATACG,0.0225
2,ACAAAGAG,-0.078
3,CAGTCGGC,-0.0129
4,GTCAGGCA,0.0185
5,ATTTCATA,0.137
6,ACTACATG,0.241
7,CCTCGTAG,-0.148
8,GTACTTGA,-0.209
9,CGCGGCAA,-0.129
10,ACCTGCCG,-0.14
11,ACCTTCTC,-0.155
12,ACTTGGAC,-0.152
13,GGGGGGAC,-0.187
14,CCGCTGAG,-0.0244
15,AAAAAATC,0.211
16,CAGTGATG,0.0641
17,GGATCCCA,0.391
18,TAGACCAA,-0.0556
19,GCACCTAC,0.0998
20,CAGTCAAG,0.00273
21,AGGTTAGC,0.0806
22,AGAACACA,-0.154
23,CGAACATA,-0.0511
24,CTATGTGA,0.0291
25,ATTGCGCC,-0.137

row,Sequence,PBM E-score
1,AGCGGCTA,0.0167
2,AGACATAG,-0.0478
3,TCAATGAA,-0.00056
4,CGTTCGAC,-0.229
5,ACCGACTC,-0.0867
6,ATGACCCC,-0.0726
7,AGAAATGA,-0.00385
8,TACCAGAA,0.34
9,CCCACTAA,0.241
10,ACACATCT,0.0546
11,AGCTTCTA,0.297
12,AATAAGTG,0.0331
13,AAGGTCGG,-0.241
14,CCAGTGGC,-0.0248
15,TAAAATGA,0.19
16,AAGTAGAG,-0.0335
17,GGGCTGAC,-0.363
18,ACGGGTAC,-0.0129
19,CTATTACC,0.112
20,CTCAACGA,-0.151
21,ATGACGCA,-0.051
22,ATGGGAGG,0.115
23,GCCCGGCA,-0.0489
24,ACGTACAA,-0.168
25,CTTTAGGC,-0.137

row,Sequence,PBM E-score
1,CCCTAGCC,0.0608
2,CAGAGTCC,0.162
3,GAATCCTC,0.239
4,CCCAGCTC,0.012
5,CGTGGCAC,0.0227
6,TGCATGCA,-0.177
7,AGCTCGTA,-0.245
8,ACTACTAC,-0.0628
9,ATCGTCTC,0.0401
10,AAGGTTAC,-0.0179
11,AAATGGCT,0.0656
12,ATTCAATG,0.103
13,CGGGTGTA,0.0518
14,TACAGCGA,-0.0435
15,GCTTTCCC,-0.0976
16,CTTGTACC,0.101
17,ACCACAAA,0.236
18,CCTTAGAC,0.0688
19,AATATAAT,0.151
20,CCGACGAC,-0.13
21,AAGGTGAT,-0.0725
22,CGTGCCAG,-0.191
